Assay results: the supplement of paper PMC3334620
Over roughly 33,000 sequences, “E-score (-0.5 to 0.5)” has its median near -0.036; the highest 2% begin near 0.37. This is one part of the list.

These sequences were tested against T1, Yer064c (UniProt P40041) (assay: PBM E-score (8-mer binding enrichment) (E-score (-0.5 to 0.5)); higher = stronger / more preferred TF binding; most listed sequences are background and not binding sites). Conditions: protein concentration: 200 nM; construct: GST-full length.
T1 sequence: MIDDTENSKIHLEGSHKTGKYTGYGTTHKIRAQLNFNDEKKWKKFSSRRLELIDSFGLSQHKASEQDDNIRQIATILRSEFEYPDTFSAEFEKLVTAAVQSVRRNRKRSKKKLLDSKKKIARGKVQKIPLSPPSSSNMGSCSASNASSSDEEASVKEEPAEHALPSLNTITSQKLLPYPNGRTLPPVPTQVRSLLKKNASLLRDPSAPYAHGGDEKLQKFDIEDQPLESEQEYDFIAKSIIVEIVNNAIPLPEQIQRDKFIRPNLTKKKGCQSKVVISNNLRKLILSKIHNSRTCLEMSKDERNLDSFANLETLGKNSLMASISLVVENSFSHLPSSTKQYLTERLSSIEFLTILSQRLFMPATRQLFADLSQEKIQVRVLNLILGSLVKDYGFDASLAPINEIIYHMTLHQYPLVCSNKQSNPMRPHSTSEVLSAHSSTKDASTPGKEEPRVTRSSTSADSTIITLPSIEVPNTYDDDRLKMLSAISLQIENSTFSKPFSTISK
Method in brief: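 Universal all-10-mer Agilent arrays, double-stranded by primer extension on fresh or once-stripped slides, were probed with about 100-200 nM GST-tagged yeast transcription factors made by PURExpress. Fluorescent anti-GST detected bound protein, and masliner normalised the scans. E-scores from the Universal PBM Analysis Suite were given to each ungapped eight-base word pooled with its reverse complement.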

Sequence	PBM E-score
AACCTAAT	0.0306
AAGCCAGA	-0.166
CTGCCTGA	0.225
AATATGAA	0.0906
ATTCCGCG	-0.123
ACTACCGA	0.0041
GCGCCCGA	-0.0477
GTTACTTA	0.163
AGTTTTAG	-0.0362
AAGACGCA	-0.148
TAGCGACA	-0.00348
CACCAGAG	-0.0446
AAATAAGG	-0.161
AGCTCCAC	-0.153
ACACGATG	0.00339
AGGAAGAC	0.207
ACGCCTCA	-0.179
ATCGGCGC	-0.173
GCATTAAC	-0.00264
GGTATAAC	-0.212
TCGGGGCA	-0.111
TCATCGGA	0.15
CCAGAAGG	-0.0483
GTGCTTAA	-0.0711
ATCGTCAC	-0.00908

Sequence	PBM E-score
TAGGATAA	-0.0189
CGCTAACC	-0.19
ACATTTTC	0.0783
GACCTCCC	-0.235
GGACATGA	-0.041
ATCCTAAA	-0.0812
GCAAGTCA	0.361
ACTGACAA	0.182
ACAACTAA	0.0714
ACCTAATA	-0.0735
GATGAGAC	0.257
CTTACTAA	0.219
CGCGAAAG	-0.0469
CGGGTCAG	0.0663
GCTCACCC	-0.0459
CTGCCTTC	-0.176
AAGCCCAT	0.00868
AAGGCCAA	-0.214
AACATCAT	0.12
AGACCTAT	-0.108
CCTATTGA	0.0204
CCATGGCC	-0.324
CATCCAGC	0.0141
GGCGGAAC	-0.0205
AGGCGTCC	-0.227

Sequence	PBM E-score
GAGCTAGA	-0.331
AACAAAAG	-0.0416
CCCTGAAC	-0.00543
GACTCTTA	0.428
CTCTGAGA	-0.00343
ACAATCAT	0.385
AGTGAATG	0.0208
AAGCGAAG	-0.0548
ATGTCTTG	-0.113
TACGATCA	-0.0795
GCGCAAGA	0.0992
ATAGCGCA	-0.106
CGTGTATA	0.0534
GACATAGA	-0.117
TACCGCCA	-0.125
CGTATGCC	-0.111
CTCAAAAG	0.0753
GCGCCAGA	-0.097
TCCATTAA	-0.109
TTAGCAAA	-0.00339
GTATCCAC	-0.102
AAAGTGCG	-0.07
ATTCATAG	0.166
ACCGAACA	0.0147
CCGGAGCA	-0.289

Sequence	PBM E-score
CAATTGGC	0.00285
GCTTGTAC	-0.18
AGCTCTGC	-0.211
TGTACAAA	-0.0583
CTGTATAA	-0.033
AGAGTTAG	-0.00282
AATGTAGA	-0.197
AGCTTGCG	-0.167
AAATTAAT	0.221
TGACGCCA	-0.186
CATATGGA	0.062
CCTACACC	-0.255
GCCTTAGA	0.0034
GAGCCGAC	0.0105
CGCCTATA	-0.111
ATTGCCCA	-0.0349
CTGAGAAG	-0.00418
ACTAACCC	0.223
GACGGAGA	-0.0412
TCGTGTAA	0.12
AGTCATCG	0.492
AGATTCCT	-0.00676
GCCTATAC	-0.241
CAGCGAGG	-0.169
AAACGATT	0.237

Sequence	PBM E-score
GCATCTGA	-0.00331
CAAGTAAG	0.0417
ACGAACCA	0.141
CCATTTGC	-0.0755
CGGCAGAA	-0.25
GGTCACGA	0.0181
TGGAACCA	0.109
ATAACCGA	-0.0944
CAAGGTGA	0.154
ATATGTCA	-0.0581
GCAGTGCC	-0.336
ATGCGTAC	0.00051
TCACAAGA	0.172
CGCCGAAC	-0.092
GTTTGCGA	0.0615
CGCAGCCA	0.0799
AGTTGGGA	-0.0942
ATAGCCAT	0.261
GAGTGAGA	0.143
ATAGCTCG	-0.0461
ACGACACA	0.0398
CTACCAGA	-0.00486
TGTAATAA	0.0825
ATTCGACC	0.00755
CGCGTTCC	-0.194

Sequence	PBM E-score
AACCTGTC	-0.0991
CTGATGAA	0.0655
GAGTGGGA	-0.0791
CCACGCGG	-0.181
CCCATTAA	-0.0295
AATCATCA	0.463
CATGGAAA	0.0483
ACAGCAGG	-0.16
ATGACGGA	-0.0217
GAAGCATA	-0.00207
GCTATTTA	0.0946
ACGCACTG	-0.213
AAAAGACA	-0.0266
ACTCTGCC	0.089
CTGTTTAC	-0.0257
CTCCTAAC	0.0203
ACCGAGAA	-0.0423
AATTCATA	0.0256
CCAGTTAA	0.0803
CCATAGAC	-0.0471
GTTATCCA	0.0527
AACGTAGG	-0.222
GACCGTCC	-0.311
AACACGTA	-0.0281
CAAAGCTC	-0.0324

Sequence	PBM E-score
GAGTAGAC	0.0494
CCAAACAG	-0.188
GCCAGGAA	-0.00995
AGTGACAT	-0.198
GAGCGCTA	-0.0195
GACGCAAA	-0.146
GCTGACTA	0.467
ACTATGCA	0.166
TAGCTTAA	0.0953
TAATATAA	0.162
GAAGCGCC	-0.149
ATGCGGTC	-0.044
AATGAGTG	0.249
CTGATCGC	-0.0451
CCATGCGA	-0.0695
ATCACTAA	0.133
CCCGCCCC	-0.223
AAGAATCC	0.0397
CCTGCTAG	-0.0964
AAGGATGC	-0.261
ACATCTCG	-0.0636
AGGCATTC	-0.366
